# Measurements from the BET-seq Pho4 binding data (Le et al. 2018).
# This is one part of the list. Values were computed here from the reads of four pooled replicates and scatter widely.
# Target: T1, Pho4 (S. cerevisiae) (UniProt P07270)
# T1 sequence: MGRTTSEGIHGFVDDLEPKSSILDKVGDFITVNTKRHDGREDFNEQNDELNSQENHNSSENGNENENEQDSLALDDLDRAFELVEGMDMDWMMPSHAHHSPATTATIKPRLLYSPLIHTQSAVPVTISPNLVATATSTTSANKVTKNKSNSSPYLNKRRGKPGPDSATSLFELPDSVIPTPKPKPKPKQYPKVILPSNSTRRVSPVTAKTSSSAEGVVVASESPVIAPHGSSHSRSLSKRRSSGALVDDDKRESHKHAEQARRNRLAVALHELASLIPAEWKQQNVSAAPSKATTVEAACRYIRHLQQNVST
# Assay: relative binding free energy (BET-seq); higher = weaker binding
# Conditions: reference: library average
row,Sequence,relative binding free energy [kcal/mol]
1,AGTGGCACGTGCCGTT,-0.17
2,TGATGCACGTGGGTTT,-0.04
3,TTGGCCACGTGAGATG,0.23
4,TGAGGCACGTGTTCAG,-0.12
5,TAAGTCACGTGGGGAC,0.06
6,ATAAACACGTGTTGGT,-0.09
7,AATTACACGTGAGGTT,0.36
8,CGAGCCACGTGGGGTG,-0.21
9,GCTGTCACGTGTTTGA,0.08
10,AGGTGCACGTGTAAAT,-0.03
11,TGGGTCACGTGATGAA,0.36
12,AAGTTCACGTGGGTGT,0.14
13,GGGTACACGTGTTTAT,0.05
14,TGTGGCACGTGTCCTT,-0.03
15,AAGTACACGTGGTGTC,0.05
16,GTGCACACGTGGTAAG,0.06
17,TGATGCACGTGCGAAG,0.05
18,GTGTTCACGTGAAAGT,0.39
19,AAGTGCACGTGGTGGT,0
20,TCCGTCACGTGTGTGA,0.1
21,TGATTCACGTGGCTGG,0.3
22,TGTAACACGTGTTAGG,0.05
23,ATGTGCACGTGTATGT,0.02
24,TGTTTCACGTGAGGGG,0.44
25,GTTTACACGTGAGATG,0.13
26,TGTGGCACGTGAGTAT,0.18

row,Sequence,relative binding free energy [kcal/mol]
1,TAGGTCACGTGCAGGG,0.08
2,GTTAACACGTGGGATG,-0.16
3,AGGGACACGTGAGTCG,0.18
4,TGTTTCACGTGATTGA,0.34
5,CTTGGCACGTGTTAAT,-0.14
6,TAGGGCACGTGATGGG,-0.06
7,GATCACACGTGGGAGG,0.13
8,GATTGCACGTGGCATG,0.08
9,TCAATCACGTGTTGGT,0.2
10,GGAATCACGTGGATGG,0.2
11,GCCTGCACGTGAGGTT,0.36
12,ACGGTCACGTGATGTT,0.19
13,GGGCGCACGTGCGGGA,-0.07
14,AAGGGCACGTGCGGGT,-0.23
15,GTCGTCACGTGTTATT,0.15
16,CGTTTCACGTGAGCGG,0.3
17,GAATTCACGTGTTGCT,0.45
18,ATTGTCACGTGCAAGG,0.27
19,TTGGTCACGTGCAGGG,0.13
20,CGGGGCACGTGATGGC,0.04
21,CTTGTCACGTGGATTT,0.1
22,GGGGTCACGTGAGGCC,0.39
23,TTAAGCACGTGGCTTG,-0.15
24,GAATTCACGTGTGTAG,0.23
25,TCTGGCACGTGCGTGG,-0.19
26,AATTTCACGTGTTAAT,0.24

row,Sequence,relative binding free energy [kcal/mol]
1,GCGGTCACGTGTGTGG,0.1
2,GCTGGCACGTGGTTAG,-0.1
3,GACTACACGTGGGTGG,-0.14
4,TATTTCACGTGCATGG,0.29
5,GGGCCCACGTGGTGTG,-0.08
6,TATCTCACGTGAGGTT,0.46
7,GGGTTCACGTGTGGAG,0.3
8,TGTGTCACGTGCGAAA,0.14
9,TGAGGCACGTGAAGTC,0.12
10,TGGAGCACGTGGGTGT,-0.16
11,AAAGGCACGTGGCTTG,-0.13
12,TTAGGCACGTGTTCGG,-0.05
13,GGGGGCACGTGTCAGG,-0.03
14,GAAATCACGTGCGGGT,0.19
15,AATCGCACGTGTGAGG,0.03
16,GGTTCCACGTGGCGGT,0.09
17,TGGCGCACGTGGCTTT,-0.1
18,GTGATCACGTGTATGG,0.28
19,GTGGACACGTGTATGA,-0.02
20,GGACGCACGTGTCGGT,0.12
21,TGGAACACGTGGGAGT,0.02
22,TGTGGCACGTGCACGT,-0.29
23,CGTGGCACGTGGAGTG,-0.19
24,TTTATCACGTGGCGTC,0.04
25,TAGTCCACGTGGGGTA,-0.2
26,TAGCACACGTGGTTGT,-0.03

row,Sequence,relative binding free energy [kcal/mol]
1,TTAGACACGTGTAGTT,0.11
2,TGCTTCACGTGGCGGG,0.15
3,CGTGCCACGTGGTTTG,-0.04
4,ATAGCCACGTGGTTGG,-0.26
5,GGTGTCACGTGAATTC,0.39
6,TTGGGCACGTGGATGC,-0.12
7,TGGCCCACGTGGTGAG,-0.1
8,AGTCACACGTGGTTTT,0.09
9,ATTTTCACGTGTAAAA,0.27
10,TATCTCACGTGATTTT,0.24
11,TTATACACGTGAGTTA,0.06
12,TTTAACACGTGGATAG,0.06
13,AGTGGCACGTGGTACT,-0.23
14,CGGCGCACGTGTGGCG,0.02
15,TTGTTCACGTGCGTAG,0.15
16,CGTTCCACGTGGGCGG,-0.03
17,AGTGCCACGTGGTCGG,-0.16
18,AGGTACACGTGTGAGC,0.21
19,ATTTACACGTGATAGG,0.27
20,ATACTCACGTGCGGTG,0.18
21,TAAGACACGTGTTGTG,-0.23
22,TGTCTCACGTGGTTGA,0.13
23,TTAGTCACGTGAAAGC,0.3
24,ATAAGCACGTGTGGAA,0.06
25,AGGTTCACGTGTTACT,0.39
26,AGGGACACGTGATATG,0.13

row,Sequence,relative binding free energy [kcal/mol]
1,AGTAACACGTGTTAAT,0.06
2,GATTGCACGTGGCGTG,-0.04
3,AATAACACGTGAGTTT,0.31
4,AACGGCACGTGGTTGT,-0.35
5,TGTGTCACGTGGTAGA,0.11
6,TGTAACACGTGAGTGC,0.21
7,GCAGGCACGTGCAGGG,-0.16
8,GTAGGCACGTGGGGCC,-0.23
9,GGCGCCACGTGGGTGG,-0.17
10,TAATGCACGTGGGTTC,-0.23
11,TAGGTCACGTGGATAG,0.17
12,CTTATCACGTGTAGAG,0.13
13,AGGAGCACGTGTGTCA,-0.04
14,ATATCCACGTGGGTTG,-0.13
15,TGGTGCACGTGCTAGT,-0.02
16,GTATTCACGTGTAAAT,0.36
17,ATTAGCACGTGCATTG,-0.09
18,TCAGGCACGTGGTGGT,-0.16
19,GATATCACGTGTAGTG,0.12
20,AATAGCACGTGGTTAA,-0.13
21,TGTATCACGTGATAGG,0.17
22,AACTGCACGTGGGGTA,-0.32
23,CTTTTCACGTGTTAAT,0.21
24,CTCGGCACGTGTTGGA,0.05
25,ATGTACACGTGTCGGC,0.26
26,GATGGCACGTGCGGGT,0.03

row,Sequence,relative binding free energy [kcal/mol]
1,TTGTTCACGTGGCGGC,0.29
2,TTTCTCACGTGCGGTT,0.21
3,GAGGACACGTGATGAG,0.29
4,GAAGTCACGTGGGAAG,0.27
5,AGTGACACGTGTGGCT,0.09
6,TTTTTCACGTGACTAT,0.42
7,ATACTCACGTGGGTGT,0.08
8,TGTTGCACGTGAGAAA,0.17
9,TATAGCACGTGTGGGA,-0.08
10,TACGGCACGTGGGGGA,-0.08
11,TGCTGCACGTGGGGAG,-0.23
12,TGTATCACGTGTCTTA,0.16
13,AGTTACACGTGGTCGT,0.02
14,TGCAGCACGTGGTTTA,-0.13
15,TGGCTCACGTGTGGTT,0.15
16,GGTTACACGTGCAGGA,0.17
17,AATGGCACGTGTGTAA,-0.02
18,TATCTCACGTGGGTGT,0.12
19,CATGGCACGTGGTCGG,-0.2
20,TTTAACACGTGTGATA,-0.04
21,AATTTCACGTGTGGAG,0.31
22,ATGTTCACGTGTTTAA,0.25
23,AAGTTCACGTGGGGAC,0.13
24,GTGGGCACGTGAGCGC,0.13
25,GCGGTCACGTGGTAAG,0.22
26,AAGTTCACGTGCTGAG,0.35

row,Sequence,relative binding free energy [kcal/mol]
1,ATTGTCACGTGGTATC,0.02
2,ATGTTCACGTGGCAGA,0.14
3,TGTCTCACGTGTTGAT,0.13
4,GGGGTCACGTGTACTA,0.19
5,GGGGGCACGTGTCAGT,-0.07
6,TTCGCCACGTGTGTGG,0.04
7,TCGGGCACGTGGGAAT,-0.11
8,ATTTGCACGTGGTGGA,-0.03
9,TCGGACACGTGCTGGT,-0.08
10,TATTTCACGTGAATTA,0.44
11,GAAATCACGTGAGTTT,0.45
12,GTGGTCACGTGCGGCG,0.06
13,TGTTTCACGTGGGGTG,0.12
14,GAGTGCACGTGTGAAT,0.08
15,TGTTGCACGTGCCTAT,0.06
16,AGGGCCACGTGGGCGG,-0.21
17,GGCGGCACGTGTTATA,-0.01
18,AGTCACACGTGAGGAG,0.35
19,GATGTCACGTGCAAGG,0.14
20,AAGTTCACGTGTGGTA,0.34
21,AGTAGCACGTGTTGGT,0
22,GGTGGCACGTGTGGGA,-0.06
23,TTTCGCACGTGAGTTT,0.2
24,CATTGCACGTGGTTGA,-0.18
25,GGGGGCACGTGTTTAC,-0.15
26,TTGCTCACGTGATTGG,0.29

row,Sequence,relative binding free energy [kcal/mol]
1,ATGGACACGTGGGGAC,-0.09
2,CTATACACGTGTGGGT,0.03
3,AGGGACACGTGCTTGT,-0.22
4,ACATTCACGTGATGTT,0.18
5,CGCGACACGTGTGTTT,0.24
6,TGGCTCACGTGTCTTG,0.03
7,ATCGACACGTGGTAGG,0.04
8,TTTATCACGTGGGTAA,0
9,CGGAACACGTGTGTTG,0.08
10,AGGAGCACGTGGACGG,0.03
11,CTATTCACGTGCGGTT,0.16
12,TTGGTCACGTGGTACT,0.11
13,GTCGGCACGTGGATGG,-0.01
14,ATACGCACGTGATGGT,-0.09
15,GGTGTCACGTGATAGG,0.23
16,GGTTTCACGTGTAAGG,0.32
17,TGTCGCACGTGCGAGG,-0.13
18,GTAAACACGTGTAGTA,0.05
19,GGGGTCACGTGGGAGT,0.11
20,GGGAGCACGTGGTGGA,-0.23
21,CGCTGCACGTGTGTGG,-0.05
22,AACGTCACGTGGTTTT,0.05
23,GTCAGCACGTGCTGTG,0.09
24,AGAGGCACGTGAAGGA,0.15
25,TTTGACACGTGATGGC,0.39
26,GCAATCACGTGGTTGG,0.03

row,Sequence,relative binding free energy [kcal/mol]
1,TGAGGCACGTGCACGG,-0.14
2,GTAGTCACGTGACTTG,0.16
3,GTTAGCACGTGAGGGT,0.18
4,TGGTGCACGTGGGTCT,-0.13
5,TATCCCACGTGTGTGT,0.03
6,CTCTTCACGTGGGGGT,0.05
7,GATCTCACGTGGTAGT,0.19
8,TCGGGCACGTGGGTGC,-0.13
9,ATTACCACGTGGTTTA,-0.06
10,ACGATCACGTGGGGAT,0.1
11,TATATCACGTGATAGT,0.26
12,ATTTACACGTGAGGCT,0.28
13,CATGACACGTGTTAGG,-0.06
14,TTAAACACGTGTATAT,0.04
15,CTTTTCACGTGTAGGC,0.29
16,ATGGTCACGTGGATTG,0.12
17,ATGGGCACGTGCGGGC,-0.21
18,GTGTGCACGTGGGGCT,-0.21
19,TGCTTCACGTGATGGG,0.47
20,AGTGGCACGTGCTGTA,-0.32
21,GGGTGCACGTGGTGCG,-0.06
22,GGTCTCACGTGGGGAA,0.16
